Experimental data reported in PubChem BioAssay AID894 (National Center for Advancing Translational Sciences (NCATS), 2007).
Hit rate of the full screen: of about 150,000 compounds, about 6,500 (4.3%) were called active. Inconclusive results, whose numbers are uncertain, are shown with a selection of clear calls. Calls come from the whole dose curve; as a rule, active = well fitted inhibition curve with a large enough effect (not every such curve was filed as active); inconclusive = small, poorly fitted or top-dose-only effect, or another doubt; inactive = no such curve, though single readings can be large or run the other way. Potencies of inconclusive entries are left out as doubtful fits.
% is set by controls: 0 for no effect and ±100 for the full control effect; potency is the fitted concentration of half-maximal effect; tags give direction and shape of the fitted curve.

What follows are molecules tested against 15-hydroxyprostaglandin dehydrogenase [NAD(+)] (Homo sapiens) (UniProt P15428) (assay: qHTS Assay for Inhibitors of HPGD (15-Hydroxyprostaglandin Dehydrogenase)). Conditions: purified HPGD, NADH fluorescence kinetic, PGE2 substrate; activity change, negative = inhibition: hits give low values.
UniProt P15428, sequence (P15428 whole entry, looked up): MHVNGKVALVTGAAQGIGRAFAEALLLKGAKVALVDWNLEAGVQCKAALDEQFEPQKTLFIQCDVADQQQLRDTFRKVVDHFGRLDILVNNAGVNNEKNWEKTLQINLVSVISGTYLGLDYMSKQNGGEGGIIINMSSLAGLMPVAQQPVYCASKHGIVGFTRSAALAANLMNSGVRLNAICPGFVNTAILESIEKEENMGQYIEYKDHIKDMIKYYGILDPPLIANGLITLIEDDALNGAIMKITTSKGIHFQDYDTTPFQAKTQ
Summary of the method: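 20 nM HPGD preincubated 15 min at room temperature with compound in 50 mM Tris-HCl pH 8, 0.01% Tween 20. Started with 1 mM NAD+ and 30 uM prostaglandin E2; NADH fluorescence (360/450 nm) read 5 times over 30-s intervals, last minus first.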
With `Cc1cccc(CSc2nc(N)c(C#N)c(-c3cccs3)c2C#N)c1` the Potency was inconclusive [inhibitor, single point]. `COc1cc(/C=C2\C(=O)N(c3ccccc3)N=C2C)ccc1Oc1ccc([N+](=O)[O-])cc1[N+](=O)[O-]` was tested, and the Potency was active: 12.6 µM. With `c1ccc(COc2ccc(Nc3ncnc4nc[nH]c34)cc2)cc1` the Potency was active: 15.8 µM. For `O=c1cc(-c2ccccc2)c2ccc(O)c(CN3CCCCC3)c2o1`, the Potency was inconclusive [inhibitor, partial curve]. With `CCC1CCc2c(sc(NC(=O)C3CC=CCC3C(=O)O)c2C#N)C1` (stereo not given) the Potency was active: 31.6 µM. For `Brc1ccc2ncnc(Nc3cccc4ccccc34)c2c1`, the Potency was inconclusive [inhibitor, partial curve]. `NC(=O)c1cccc(N)c1` was tested, and the Potency was inconclusive [inhibitor, partial curve]. In the case of `COc1ccc(N2C(=O)c3ccccc3NC2c2ccc(OC)c(Cn3nnc4ccccc43)c2)cc1` (stereo not given), the Potency is reported as inconclusive [inhibitor, single point]. In the case of `Cc1ccc2c(c1)c1c(n2CC(O)Cn2ccnc2C)C(=O)CCC1` (stereo not given), the Potency is reported as inconclusive [inhibitor, single point]. In the case of `O=C(CC1=NCCNC(c2ccccc2)C1)c1ccccc1O` (stereo not given), the Potency is reported as active: 25.1 µM. `Cc1ccc(S(=O)(=O)c2c(N)n(C)c3nc4ccccc4nc23)cc1` was tested, and the Potency was inconclusive [inhibitor, partial curve]. In the case of `Cc1ccc(C)c(NC(=S)NNC(=O)c2csc(C(C)C)c2)c1`, the activity change, negative = inhibition is reported as inactive: -10.4%. For `CN1CCN(CC(=O)N2N=C(c3cccs3)CC2c2ccco2)CC1` (stereo not given), the Potency was inconclusive [inhibitor, partial curve]. With `Cc1cc(=O)oc2cc3c(cc12)OCCN3` the Potency was inconclusive [inhibitor, partial curve]. For `Cc1ccc2nc3c(cc(C(N)=S)c(=N)n3CCCOC(C)C)c(=O)n2c1`, the Potency was inconclusive [inhibitor, partial curve]. In the case of `COCCCN1C(=O)C(=O)/C(=C(/O)c2ccc(OC(C)C)cc2)C1c1cccnc1` (stereo not given), the activity change, negative = inhibition is reported as inactive: -17.1%. `COC(=O)c1ccccc1NS(=O)(=O)c1ccc2[nH]c(=O)[nH]c2c1` was tested, and the activity change, negative = inhibition was inactive: -11.9%. With `CCCCCC1C(=O)C[C@@H]2CCN3C(=O)CCC[C@H]1[C@H]23` (stereo not given in full) the activity change, negative = inhibition was inactive: -0.184%. For `Cc1cccn2c(=O)c3cc(C#N)c(=O)n(CCCN4CCOCC4)c3nc12`, the Potency was inconclusive [inhibitor, partial curve]. In the case of `COCc1cc(C)n(CC(=O)Nc2ccc(Cl)cc2Cl)c(=O)c1C#N`, the Potency is reported as inconclusive [inhibitor, single point]. `CCn1c(SCC(=O)c2c(N)n(C)c(=O)n(C)c2=O)nnc1-c1ccccc1` was tested, and the activity change, negative = inhibition was inactive: 0.543%. With `COc1ccc2cc3cc(C(=O)NCC4COc5ccccc5O4)oc3nc2c1` (stereo not given) the Potency was inconclusive [inhibitor, partial curve]. `Cc1cc(C(=O)Nc2ccccc2)c(C)o1` was tested, and the Potency was inconclusive [inhibitor, partial curve]. In the case of `O=C(Nc1nc(-c2ccccc2)c(-c2ccccc2)s1)c1ccc(S(=O)(=O)N2CCCCC2)cc1`, the Potency is reported as inconclusive [inhibitor, partial curve]. For `CCc1c(C)sc(NC(=O)C2CCCO2)c1C#N` (stereo not given), the Potency was active: 28.2 µM. In the case of `O=C(NNC(=S)NC1CCCCC1)c1sc2ccccc2c1Cl`, the activity change, negative = inhibition is reported as inactive: -28.9%. With `CCCCOc1ccc(CNn2c(C)nc3ccccc3c2=O)cc1` the Potency was inconclusive [inhibitor, partial curve, poor fit]. `CCOC(=O)Cc1csc(NC(=O)CS(=O)(=O)Cc2ccccc2)n1` was tested, and the activity change, negative = inhibition was inactive: -0.973%. With `Cc1c(C(=O)c2ccc(Cl)cc2[N+](=O)[O-])c2ccccn2c1CCC#N` the Potency was inconclusive [inhibitor, partial curve]. `O=c1[nH]c(Nc2ccccc2)cc2ccccc12` was tested, and the Potency was inconclusive [inhibitor, partial curve]. For `O=C(CSC1=NCCS1)Nc1ccccc1F`, the Potency was active: 28.2 µM. `CCOc1ccccc1NC(=O)CC1Nc2ccccc2NC1=O` (stereo not given) was tested, and the Potency was inconclusive [inhibitor, partial curve]. `Cn1cc(SCC(=O)NCC2CCCO2)c2ccccc21` (stereo not given) was tested, and the Potency was active: 28.2 µM. For `Cc1cc(C)n(/N=C/c2c[nH]c3ccccc23)c(=O)c1`, the Potency was inconclusive [inhibitor, partial curve, poor fit]. `C=C(C)CN(CC)c1nc(N)c2c(N)nc3c(c2c1C#N)CC(=O)N3C12CC3CC(CC(C3)C1)C2` was tested, and the Potency was inconclusive [inhibitor, partial curve]. In the case of `CCCCC(CC)Cn1c2nc3ccccc3nc2c2c(=N)oc(C)nc21` (stereo not given), the Potency is reported as inconclusive [inhibitor, single point]. `CCOC(=O)c1c(NC(=O)Cc2cccs2)sc(C)c1C` was tested, and the Potency was inconclusive [inhibitor, single point]. For `CCOC(=O)CN1C(=O)S/C(=C/C=C/c2ccc(N(C)C)cc2)C1=O`, the activity change, negative = inhibition was inactive: -5.38%. With `CC1(NC(=O)COc2ccccc2-c2ccccc2)CCS(=O)(=O)C1` (stereo not given) the activity change, negative = inhibition was inactive: -3.57%. With `COC(=O)/C(=C/c1cn(C)c2ccccc12)[N+](=O)[O-]` the Potency was active: 3.55 µM. For `Cc1ccc(S(=O)(=O)CCSc2nc(C)cc(C)c2C#N)cc1`, the activity change, negative = inhibition was inactive: -29.1%. In the case of `CCC1OC23CCCCC2C(C#N)(C(=N)O3)C1(C#N)C#N` (stereo not given), the Potency is reported as inconclusive [inhibitor, partial curve]. With `O=C(CN(C1CCCCC1)S(=O)(=O)c1ccccc1)NCc1ccco1` the Potency was inconclusive [inhibitor, single point]. For `COC(=O)c1cn(NC(=O)c2ccc(OC)c(OC)c2)c(=O)c2ccccc12`, the Potency was inconclusive [inhibitor, partial curve, poor fit]. With `COc1ccccc1NC(=O)c1sc2ncn(Cc3ccccc3C)c(=O)c2c1C` the Potency was inconclusive [inhibitor, partial curve]. `Cn1cccc1Cc1nnc(SCC(=O)Nc2ccccc2)n1-c1ccc(F)cc1` was tested, and the activity change, negative = inhibition was inactive: -9.76%. In the case of `COc1cccc(Cn2c(=O)cnc3cnc(Oc4cccc(Cl)c4)nc32)c1`, the Potency is reported as inconclusive [inhibitor, single point]. In the case of `Cc1ccccc1C(=O)N1CCc2ccccc2C1`, the Potency is reported as active: 0.631 µM. For `S=c1[nH]nc(-c2cc3ccccc3o2)n1Cc1ccccc1`, the Potency was inconclusive [inhibitor, partial curve]. With `COCCNC(=O)c1noc2c1CCc1cc(OC)ccc1-2` the Potency was active: 25.1 µM. In the case of `Cc1ccc(C)c(OCc2nnc(NC(=O)c3ccco3)s2)c1`, the Potency is reported as inconclusive [inhibitor, partial curve]. In the case of `O=C(COc1ccc(Cl)cc1)Nc1c(-c2cccs2)nc2ccccn12`, the Potency is reported as inconclusive [inhibitor, partial curve]. In the case of `CCNc1nnc(-c2ccccc2OC)s1`, the Potency is reported as inconclusive [inhibitor, partial curve]. For `O=C(c1ccncc1)N1CCC2(CC1)CN(c1ccncc1)C2`, the activity change, negative = inhibition was inactive: -5.01%. For `CCOC(=O)C(C)Sc1nc(-c2cccs2)ccc1C#N` (stereo not given), the Potency was inconclusive [inhibitor, partial curve]. `c1ccc(C(c2ccccc2)N2CC3(CCNCC3)C2)cc1` was tested, and the activity change, negative = inhibition was inactive: -0.251%. `COc1ccccc1-c1nnc2sc(COc3ccc(F)cc3)nn12` was tested, and the Potency was inconclusive [inhibitor, partial curve]. With `COc1cc(/C=C/C(=O)Nc2nnc(CC(C)C)s2)cc(OC)c1OC` the Potency was inconclusive [inhibitor, partial curve]. In the case of `CCCn1c(Nc2nc3ccccc3n2C)nc2ccccc21`, the Potency is reported as inconclusive [inhibitor, partial curve, poor fit]. With `CC(=O)Nc1ccc(S(=O)(=O)Nc2nc3ccccc3nc2Nc2ccccc2)cc1` the activity change, negative = inhibition was inactive: -18.2%. With `O=C(Cn1cnc2ccccc2c1=O)Nc1ccc(-c2nnc3n2CCCCC3)cc1` the Potency was active: 12.6 µM. For `Cc1ccc(C(=O)CC2(O)C(=O)N(CCc3ccccc3)c3ccc(Br)cc32)o1` (stereo not given), the activity change, negative = inhibition was inactive: -13.7%. With `COc1ccc(C(=O)Nc2nc3ccc(S(C)(=O)=O)cc3s2)cc1` the activity change, negative = inhibition was inconclusive: -36.3% [inhibitor]. With `N#CC(c1nc2ccccc2nc1N1CCCC1)S(=O)(=O)c1ccccc1` (stereo not given) the Potency was inconclusive [inhibitor, partial curve]. `O=C(CC12CC3CC(CC(C3)C1)C2)NCC(=O)OCc1cc(=O)oc2ccc3ccccc3c12` was tested, and the Potency was inconclusive [inhibitor, partial curve]. `Cc1cc(C)nc(SC2CCCCC2NS(=O)(=O)c2ccc(Cl)cc2)n1` (stereo not given) was tested, and the activity change, negative = inhibition was inactive: -1.86%. For `CCc1ccccc1-n1c(-c2ccncc2)n[nH]c1=S`, the Potency was inconclusive [inhibitor, partial curve]. With `CO[C@@H]1C[C@H](O[C@H]2[C@@H](C)[C@H](O[C@@H]3O[C@@H](C)C[C@@H](N(C)C)[C@@H]3OC(C)=O)[C@H](C)C[C@]3(CO3)C(=O)[C@H](C)[C@H](OC(C)=O)[C@H](C)[C@H](C)OC(=O)[C@@H]2C)O[C@H](C)[C@@H]1OC(C)=O` the activity change, negative = inhibition was inactive: -5.47%. With `CCNc1nc(N)nc(Oc2ccc(OCCOc3ccccc3)nn2)n1` the Potency was active: 25.1 µM. For `COc1cccc(C(=O)N2c3ccccc3Sc3ccccc32)c1`, the Potency was active: 14.1 µM.
